Data: PubChem BioAssay AID651820 (National Center for Advancing Translational Sciences (NCATS), 2012)
Screen size: about 340,000 compounds; about 12,000 (3.5%) were called active. The inconclusive results got no clear call from the source; some entries with a clear call stand among them for comparison. Calls follow the shape of the dose curve; as a rule, active = well fitted inhibition curve with a large enough effect; inconclusive = small, poorly fitted or top-dose-only effect, or another doubt; inactive = no such curve, though single readings can be large or run the other way. No potency is given beside an inconclusive call; the fits are too rough.

Experiment: qHTS Assay for Inhibitors of Hepatitis C Virus (HCV)
Conditions: Huh7.5.1 HCVcc-Cre (HCVcc is cell-culture hepatitis C virus) infection, luciferase reporter, 44 h; series mostly up to 41.8 µM
How it was run: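 Reporter virus HCVcc-Cre (~0.5 moi) infects cells exposed to compound; seeding density 1,000 cells/well with 4 h settling beforehand. Luminescence, 15 sec read, taken 44 h post-infection following a 15 min RT substrate incubation.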
Potency is read from the fitted curve at half-maximal effect; tags tell the direction and shape of the fitted curve.

Compound | Potency
CN1CCN(C(=O)c2ccc(CSc3ccc(Cl)cc3)cc2)CC1 | inconclusive [inhibitor, partial curve]
Cc1ncoc1C(=O)N1CCCC(C(=O)c2ccc(-c3ccccc3)c(F)c2)C1 (stereo not drawn) | inconclusive [inhibitor, single point]
C=CC[C@H](CC(=O)N(CCO)Cc1ccccc1)C(=O)N[C@@H](COC(=O)[C@@H](CC=C)Cc1ccc(F)cc1)Cc1c[nH]c2ccccc12 | active: 22.4 µM
Cn1c(CN2CCOCC2)nc2cc(NC(=O)c3ccc(Cl)cc3)ccc21 | active: 2.82 µM
COc1ccc(S(=O)(=O)N2CCN(CC(=O)Nc3cc(Cl)ccc3Cl)CC2)cc1 | inactive
O=c1c2ccccc2sc2c(CO)ccc(NCCN3CCCCC3)c12 | inconclusive [inhibitor, full curve]
C=CCc1cc(Cl)ccc1OCCCNC(C)C | inconclusive [inhibitor, partial curve]
COC(=O)c1ccccc1S(=O)(=O)C(C)(C)C | inconclusive [inhibitor, single point]
c1ccc(C(Cc2nc(-c3cccnc3)no2)c2ccccc2)cc1 | inconclusive [inhibitor, single point]
CC(=O)c1ccc(OCc2cc(C(=O)N(C)Cc3cc(C)no3)no2)cc1 | inactive
O=C(c1ccc2nccnc2c1)N1CCN(c2ccccc2)CC1 | inactive
Cc1nc(NCC2CCCO2)[nH]c(=O)c1CCC(C)C (stereo not drawn) | inconclusive [inhibitor, single point]
CC(C)(C)c1[nH]nc2c1C(Cc1ccccc1)C(C#N)=C(N)O2 (stereo not drawn) | inactive
O=C1CN(C(=O)COC(=O)CCC(=O)c2ccc(F)cc2)c2ccccc2N1 | inactive
CCOC(=O)c1c(-c2cccc([N+](=O)[O-])c2)csc1NC(=O)CCCOc1ccccc1OC | inconclusive [inhibitor, single point]
Cc1cc(C)c(C#N)c(SCC2COc3ccccc3O2)n1 (stereo not drawn) | inconclusive [inhibitor, full curve, poor fit]
Cc1cc(S(=O)(=O)c2ccc([N+](=O)[O-])cn2)ccc1Br | inconclusive [inhibitor, single point]
Cc1ccc2c(c1)nnn2C1CCN(CC(=O)N(c2ccccc2)c2ccccc2)CC1 | inconclusive [inhibitor, single point]
CN(CC(=O)Nc1cccc(F)c1)C(=O)C1CCN(S(=O)(=O)c2ccc3c(c2)OCCO3)CC1 | inconclusive [inhibitor, single point]
Cc1c(C(=O)Nc2ccc3oc(-c4cccnc4)nc3c2)oc2ccccc12 | inconclusive [inhibitor, single point]
COc1ccc(NC(=O)CN(C)C(=O)c2ccc(-c3ccccc3Cl)o2)cc1 | inconclusive [inhibitor, partial curve]
Cc1ccc(S(=O)(=O)N2CCC(C(=O)NCCC3=CCCCC3)CC2)c(C)c1 | inconclusive [inhibitor, single point]
CCOC(=O)[C@H]1[C@H]2COc3cc(OC)ccc3[C@@H]2N2C(=O)N(c3cccc(Cl)c3)C(=O)[C@@]12C | inconclusive [inhibitor, full curve]

Compound | Potency
CNC(=O)COC(=O)[C@@H](Nc1ccc(S(=O)(=O)N2CCOCC2)cc1[N+](=O)[O-])C(C)C | inconclusive [inhibitor, partial curve]
CC(C)COc1ccc(-c2nnc(-c3ccncc3)o2)cc1 | inconclusive [inhibitor, single point]
Cc1cc(C)c(C(N)=O)c(Nc2cccc3ccccc23)n1 | inconclusive [inhibitor, single point]
CCC(Cc1ccccc1)NC(=O)CN(C)S(=O)(=O)c1ccc2c(c1)c(=O)n(C)c(=O)n2C (stereo not drawn) | inconclusive [inhibitor, single point]
COc1ccc2[nH]c(=O)c(CN(CC3CCCO3)C(=O)Nc3ccc(F)cc3)cc2c1 (stereo not drawn) | inconclusive [inhibitor, single point]
CCC1(c2ccc(F)cc2)NC(=O)N(CC(=O)N2CCN(S(=O)(=O)c3ccc(Cl)cc3)CC2)C1=O (stereo not drawn) | inconclusive [inhibitor, partial curve]
CCCCOc1ccc(C(=O)Nc2ccc(CN3CCOCC3)cc2)cc1 | active: 10 µM
COc1cc(SC)ccc1C(=O)N1CCN(c2ccccc2OC)CC1 | inactive
CCCCNC(=O)CCC(=O)Nc1ncc(-c2ccc(C)cc2)n1C | inactive
Cc1ccn2c(=O)nc(SCC(=O)NCc3ccc(F)cc3)nc2c1 | inconclusive [inhibitor, single point]
O=C(Nc1cccc(NC(=O)c2cncc(Br)c2)c1)c1cncc(Br)c1 | inconclusive [inhibitor, full curve, poor fit]
CC(C)Cn1c(=O)c(C(=O)Nc2ccccc2S(N)(=O)=O)c(O)c2ccccc21 | inconclusive [inhibitor, partial curve]
COc1ccc2[nH]c3c(c2c1)CCN1C(=O)N([C@@H](C)C(=O)NCc2ccccc2OC)C(=O)[C@]31C | active: 12.6 µM
CCCN1Cc2cccc(C(=O)Nc3ccc(CN4CCCC4)cc3)c2C1=O | inactive
NNc1nc(Nc2ccccc2)nc(N2CCCCC2)n1 | inconclusive [inhibitor, single point]
Cc1cc(C)cc(-c2nc(-c3ccncc3)no2)c1 | inactive
CCOC(=O)c1oc2ccc(CNC(C)(C)C)c(Cl)c2c1C | inconclusive [inhibitor, full curve]
CCOc1ccc(N2C(=O)CC(Sc3nnnn3-c3ccccc3)C2=O)cc1 (stereo not drawn) | inactive
CNc1nc(NC)nc(-n2c(C(F)(F)F)nc3ccccc32)n1 | inconclusive [inhibitor, single point]
COc1ccc(S(=O)(=O)N2CCCCCC2)cc1C(=O)N(CC(C)C)C1CCS(=O)(=O)C1 (stereo not drawn) | inconclusive [inhibitor, partial curve, poor fit]
Cn1cnnc1SCC(=O)OCN1C(=O)c2ccccc2C1=O | inactive
COCc1cc(S(=O)c2ccc(Cl)cc2)nc(C)n1 (stereo not drawn) | inconclusive [inhibitor, single point]
CCCn1c(=O)[nH]c(=O)c2c1nc(-c1ccccc1)n2CCN1CCOCC1 | inconclusive [inhibitor, single point]

Compound | Potency
CC(=O)CCc1oc2ccc(C)cc2c1-c1ccc(C)o1 | inconclusive [inhibitor, single point]
OC(c1ccccn1)(c1ccccn1)c1ccccn1 | inconclusive [inhibitor, single point]
Cc1ccc(NC(=S)NCCC(c2ccccc2)c2ccccc2)c(C)c1 | active: 11.2 µM
O=C(CN1CCN(c2ccccn2)CC1)N1CC(O)CO1 (stereo not drawn) | inactive
Cc1cc(C)c2c(ccc3cccc[n+]32)c1 | active: 1 µM
CCOC(=O)N1CCN(S(=O)(=O)c2ccc(C(=O)N(CCN(C)C)c3nc4ccc(Cl)cc4s3)cc2)CC1 | inconclusive [inhibitor, single point]
CCCCN(C(=O)Nc1ccc(Cl)cc1)C1CCN(C(C)=O)CC1 | inactive
O=C(NC1CCCC1)C(c1ccco1)N(C(=O)c1ccco1)c1ccccc1 (stereo not drawn) | inconclusive [inhibitor, partial curve]
NC(=O)c1nsc(C(=O)N(c2ccccc2)C(C(=O)NC2CCCC2)c2ccc3ncccc3c2)c1N (stereo not drawn) | inconclusive [inhibitor, single point]
CC(C)(C)c1ccc(NC(=S)NCCc2ccccn2)cc1 | inconclusive [inhibitor, single point]
Cc1nc([N+](=O)[O-])c(Br)n1CC(=O)c1ccc(Cl)cc1 | active: 10 µM
Cc1cc(SCC(=O)N(C)CC(=O)Nc2ccc(F)cc2)nc2ccccc12 | inconclusive [inhibitor, full curve, poor fit]
CCCN(CC(=O)Nc1ccc(F)c(F)c1F)C(=O)c1ccc(N2CCCC2=O)cc1 | inconclusive [inhibitor, partial curve]
COc1ccc(OC)c(NC(=O)CSc2nc3c(c(=O)n(C)c(=O)n3C)n2C)c1 | inconclusive [inhibitor, single point]
Nn1c(SCC(=O)Nc2c(Cl)cccc2Cl)nncc1=O | inactive
COc1ccc(OC)c2c1sc(=NC(=O)c1ccco1)n2C | active: 7.94 µM
CSc1nc2ccc3nc(NC(=O)C4COc5ccccc5O4)sc3c2s1 (stereo not drawn) | inactive
Cc1noc(C)c1C(=O)OCC(=O)/C=C1/N(C)c2ccccc2C1(C)C | inconclusive [inhibitor, single point]
CCOC(=O)Nc1cccc(NC(=O)c2cc(OC)cc(OC)c2)c1 | inconclusive [inhibitor, partial curve]
O=C(CN(Cc1ccccc1)S(=O)(=O)c1ccccc1)N/N=C/c1ccccc1[N+](=O)[O-] | inconclusive [inhibitor, single point]
COCCNC(=O)c1cc2c(-c3ccc(Cl)cc3)nn(C)c2s1 | inconclusive [inhibitor, single point]
CCOC(=O)c1c(C)c(C(=O)Nc2cc(OC)ccc2OC)c(C)n1CC | inconclusive [inhibitor, full curve, poor fit]
